Test results published in article PMC7000700, “RyR1-targeted drug discovery pipeline integrating FRET-based high-throughput screening and human myofiber dynamic Ca^2+ assays” (Scientific Reports, 2020).

Test system: RyR1 Ca^2+ leak in human skinned skeletal muscle fibers
Assay: t-system Ca2+ readout of RyR1 Ca2+ leak in human mechanically skinned skeletal muscle fibers
Settings: after 10 μM myricetin or 100 μM chloroxine

Row | SMILES | Reversibility of effect (recovery of t-system fluorescence after washout)
1 | Oc1c(Cl)cc(Cl)c2cccnc12 [chloroxine] | can be washed-out
2 | O=c1c(O)c(-c2cc(O)c(O)c(O)c2)oc2cc(O)cc(O)c12 [myricetin] | can be washed-out
